Measured values from PubChem BioAssay AID624296 (National Center for Advancing Translational Sciences (NCATS), 2012).
Screen size: about 350,000 compounds; about 9,900 (2.8%) were called active. Inconclusive results, whose numbers are uncertain, are shown with a selection of clear calls. Calls follow the shape of the dose curve; as a rule, active = well fitted activation curve with a large enough effect; inconclusive = small, poorly fitted or top-dose-only effect; inactive = no such curve, though single readings can be large or run the other way. Potencies of inconclusive entries are left out as doubtful fits.
Potency is read from the fitted curve at half-maximal effect; tags tell the direction and shape of the fitted curve.

Assay: A quantitative high throughput screen for small molecules that induce DNA re-replication in MCF 10a normal breast cells. Also: nearly all actives have a fitted effect of over 50% in size.
Details: MCF 10A DNA re-replication, Hoechst nuclear intensity, 48 h; series mostly up to 46.1 µM
For `O=S(=O)(NC1CCCC1)OCC(Cl)(Cl)Cl`, the Potency was “inactive”.
For `CCCCCCn1c(O)c(C=NC2CCN(Cc3ccccc3)CC2)c(=O)[nH]c1=O`, the Potency was “inactive”.
In the case of `CC1=C(C/C(C)=C/c2ccccc2)/C(=C/CO)[C@@H]2OC(=O)O[C@]2(C)C12CC2`, the Potency is reported as inconclusive [activator, single point].
With `Cn1c(O)c(C=NCc2cccs2)c(=O)n(C)c1=O` the Potency was inconclusive [activator, single point].
With `CCOC(=O)c1c(-c2ccc(OC)cc2)oc2ccc(OC(=O)N(C)C)cc12` the Potency was inconclusive [activator, partial curve].
With `C[C@H]1CCC/C=C/C2C[C@H](O)CC2[C@H](O)/C=C/C(=O)O1` (stereo partly specified) the Potency was active: 0.259 µM.
With `CCOC(=O)C1=Nc2ccccc2/C1=C\c1c(O)n(C)c(=O)n(C)c1=O` the Potency was inconclusive [activator, single point].
For `N#C/C(=C(/O)c1ccc(S(=O)(=O)N(CCCl)CCCl)cc1)c1nc2ccccc2[nH]1`, the Potency was active: 10.3 µM.
With `O=C1c2ccccc2C2(c3ccc(Cl)cc3)NCCN12` (stereo unspecified) the Potency was inconclusive [activator, single point].
With `CCOC(=O)c1ccc(N2C(=O)CC(N3CCC(O)(c4ccc(Cl)cc4)CC3)C2=O)cc1` (stereo unspecified) the Potency was inconclusive [activator, single point].
In the case of `CN1CCN(CC#CCOc2ccc(Cl)cc2)CC1`, the Potency is reported as “inactive”.
For `O=C(N/N=C/c1ccc(C(F)(F)F)cc1)c1ccncc1`, the Potency was inconclusive [activator, partial curve, poor fit].
For `COC(=O)C1=C(c2ccc(F)cc2OCc2ccccc2)C[C@@H]2CC[C@H]1N2C(=O)NCCOc1ccc(OC)cc1`, the Potency was inconclusive [activator, single point].
In the case of `Cc1cccc(-c2nc3ccc(C(=O)N4CCC5(CC4)OCCO5)cc3nc2-c2cccc(C)c2)c1`, the Potency is reported as inconclusive [activator, single point].
With `Cc1ccc(Cn2c(C)c3cnn(CC(=O)N4CCC5(CC4)OCCO5)c(=O)c3c2C)cc1` the Potency was inconclusive [activator, single point].
For `CCN(CC)S(=O)(=O)c1ccc(NN=C(C#N)C#N)cc1`, the Potency was active: 10.3 µM.
With `CCN1CCCC(OC(=O)C(c2ccccc2)c2ccccc2)C1` (stereo unspecified) the Potency was inconclusive [activator, partial curve, poor fit].
For `CCN(CC)CCOC(=O)C(C)(c1ccccc1)c1ccccc1`, the Potency was inconclusive [activator, partial curve, poor fit].
In the case of `O=C(c1ccc2c(c1)ncn2C1CCCCC1)N1CCC2(CC1)OCCO2`, the Potency is reported as active: 13 µM.
With `COC(=O)C1=C(c2ccc3ccccc3c2)C[C@@H]2CC[C@H]1N2C(=O)NCc1ccc(C(F)(F)F)cc1` the Potency was inconclusive [activator, single point].
For `COC(=O)C1=C(c2cc3ccccc3s2)C[C@@H]2CC[C@H]1N2C(=O)N1CCOCC1`, the Potency was inconclusive [activator, single point].
In the case of `O=[N+]([O-])c1cccc(O)c1`, the Potency is reported as “inactive”.
In the case of `C[C@H]1[C@H](OC(=O)CCC(=O)NCc2ccc(C(=O)O)cc2)O[C@@H]2O[C@@]3(C)CC[C@H]4[C@H](C)CC[C@@H]1C24OO3`, the Potency is reported as inconclusive [activator, partial curve, poor fit].
For `O=C1NC(=O)N(Cc2ccco2)C(=O)/C1=C/c1ccc(-c2cccc([N+](=O)[O-])c2)o1`, the Potency was inconclusive [activator, single point].
For `Cc1ccc(C)c(NC(=O)CCNC(=O)N2C[C@H]3C[C@@H](C2)c2cccc(=O)n2C3)c1`, the Potency was inconclusive [activator, single point].
For `CC(O)C1C=CC=CC(=O)OC2CC3OC4C5OC5(C)CCC4(COC(=O)C4OC4(C)C(O)CO1)C2(C)C31CO1` (stereo unspecified), the Potency was active: 0.146 µM.
With `O=[N+]([O-])c1ccc(Nc2ccccc2)cc1` the Potency was “inactive”.
In the case of `O=c1nc(/C=C/c2ccc(Cl)cc2Cl)cc(C(F)(F)F)[nH]1`, the Potency is reported as active: 6.51 µM.
In the case of `COC(=O)C1=C(c2cccc(OC)c2OC)C[C@@H]2CC[C@H]1N2C(=O)N1CCC(O)CC1`, the Potency is reported as inconclusive [activator, single point].
With `O=C(N/N=C/c1c(O)n(C2CC2)c(=S)[nH]c1=O)c1ccccc1O` the Potency was “inactive”.
With `CCCN(CC1CC1)CC(O)c1ccccc1` (stereo unspecified) the Potency was “inactive”.
With `COc1ccc(-[n+]2c(-c3ccccc3)cc(-c3ccc(C)cc3)cc2-c2ccccc2)cc1` the Potency was inconclusive [activator, single point].
With `Cc1ccc2c(c1)C1CN(C)CCC1N2C(=O)c1ccco1` (stereo unspecified) the Potency was inconclusive [activator, single point].
With `CCC(C)NC(=O)c1c(N)n(Cc2ccc3c(c2)OCO3)c2nc3ccccc3nc12` (stereo unspecified) the Potency was inconclusive [activator, single point].
In the case of `O=[N+]([O-])c1cc(O)c(O)c([N+](=O)[O-])c1`, the Potency is reported as inconclusive [activator, single point].
In the case of `CCC(=NCCc1c[nH]c2ccccc12)c1c(O)n(-c2ccc(C)cc2)c(=O)[nH]c1=O`, the Potency is reported as inconclusive [activator, single point].
With `COC(=O)C1=C(c2cc3ccccc3o2)C[C@@H]2CC[C@H]1N2C(=O)NCc1ccc(F)cc1` the Potency was inconclusive [activator, full curve, poor fit].
With `C=CCN1C(=O)NC(=O)C(Cc2ccc(OC)c(OC)c2)C1=O` (stereo unspecified) the Potency was inconclusive [activator, single point].
For `O=Cc1cn(Cc2cccc([N+](=O)[O-])c2)c2ccccc12`, the Potency was inconclusive [activator, partial curve].
With `CCC(C)N1C(=O)NC(=O)C2(Cc3cc(C)ccc3N(C)C2)C1=O` (stereo unspecified) the Potency was “inactive”.
With `O=[N+]([O-])c1ccccc1-c1cc(-c2ccccc2)cc(-c2ccccc2)[n+]1Cc1ccccc1Cl` the Potency was inconclusive [activator, partial curve].
